Laboratory results reported in paper PMC4336329 (PLoS ONE, 2015).
Out of some 310,000 compounds screened, about 2,200 (0.71%) showed an effect of 50% or more. Effects have a minus sign here. This is one part of the list.

Each compound was assayed against human ether-à-go-go-related gene (hERG) potassium channel (human, UniProt Q12809) (assay: primary screen, population patch clamp on CHO cells stably expressing hERG).
human ether-à-go-go-related gene (hERG) potassium channel, sequence (Q12809 whole entry, looked up): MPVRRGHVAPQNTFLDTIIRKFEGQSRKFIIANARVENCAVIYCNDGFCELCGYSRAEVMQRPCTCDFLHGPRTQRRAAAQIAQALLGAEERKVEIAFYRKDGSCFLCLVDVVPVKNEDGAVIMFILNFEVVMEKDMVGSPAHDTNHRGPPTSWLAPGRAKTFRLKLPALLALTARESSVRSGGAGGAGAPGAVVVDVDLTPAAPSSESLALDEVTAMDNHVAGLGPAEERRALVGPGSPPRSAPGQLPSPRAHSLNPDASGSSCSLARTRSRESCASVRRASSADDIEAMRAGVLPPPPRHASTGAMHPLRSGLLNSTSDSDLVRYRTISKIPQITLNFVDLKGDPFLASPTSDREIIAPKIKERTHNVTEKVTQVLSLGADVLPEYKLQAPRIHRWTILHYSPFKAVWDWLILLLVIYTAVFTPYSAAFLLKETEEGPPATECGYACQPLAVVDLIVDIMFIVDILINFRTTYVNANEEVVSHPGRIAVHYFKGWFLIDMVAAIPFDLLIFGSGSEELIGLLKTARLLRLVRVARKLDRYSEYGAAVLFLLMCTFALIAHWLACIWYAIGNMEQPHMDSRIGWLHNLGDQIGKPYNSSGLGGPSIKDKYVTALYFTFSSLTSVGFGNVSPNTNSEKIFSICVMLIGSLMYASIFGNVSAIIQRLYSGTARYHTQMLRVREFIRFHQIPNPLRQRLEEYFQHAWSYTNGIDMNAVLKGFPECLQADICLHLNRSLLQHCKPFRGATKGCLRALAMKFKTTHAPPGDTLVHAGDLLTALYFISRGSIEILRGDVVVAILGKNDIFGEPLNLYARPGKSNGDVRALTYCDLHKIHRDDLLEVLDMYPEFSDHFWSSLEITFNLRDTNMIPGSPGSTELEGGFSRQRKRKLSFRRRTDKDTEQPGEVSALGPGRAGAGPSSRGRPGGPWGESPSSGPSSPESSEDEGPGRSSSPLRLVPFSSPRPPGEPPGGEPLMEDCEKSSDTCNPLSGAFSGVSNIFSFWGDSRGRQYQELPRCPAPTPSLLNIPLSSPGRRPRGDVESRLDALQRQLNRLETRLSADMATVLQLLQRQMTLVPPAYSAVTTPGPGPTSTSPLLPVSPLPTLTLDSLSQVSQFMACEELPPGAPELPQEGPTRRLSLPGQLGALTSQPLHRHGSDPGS

SMILES | hERG current change (%, negative = inhibition) at 1uM [%]
COc1ccc(NC(=O)CCN2CCN(S(=O)(=O)c3ccc(Cl)cc3)CC2)cc1 | 2.03
COc1cc(N2CCCC2)c(OC)cc1C=O | 13.2
O=C(OCc1cnc(Cl)s1)c1ccc(Cl)cc1 | 2.91
Cc1[nH]n(-c2ccccc2)c(=O)c1N=Nc1cccc([N+](=O)[O-])c1 | 4.2
O=C1Nc2cc(Cl)c(Cl)cc2N(O)N1c1ccc(Cl)c(Cl)c1 | -8.17
CC(=O)N1CCN(S(=O)(=O)c2cccc(C(=O)Nc3ccc4c(c3)CCC4)c2)CC1 | -4.54
COc1ccccc1N(CC(=O)N(C)Cc1ccccc1)S(=O)(=O)c1cccs1 | 11.2
CCc1cc(C)c(O)c(CC)n1 | -9.13
COc1ccc(S(=O)(=O)N(C)C)cc1NCC(=O)Nc1ccc(Br)cc1F | -8
Clc1cccc(CN2COc3c(cc(Cl)c4cccnc34)C2)c1 | 12.7
CSCCC(NC(N)=O)C(=O)NCc1cccc(Cl)c1 (stereo not shown) | 7.67
O=C(c1ccc(CS(=O)c2ccccc2Cl)o1)N1CCN(c2ccccc2)CC1 (stereo not shown) | -19.4
O=C(CSc1ccccn1)Nc1nonc1[N+](=O)[O-] | 6
Cc1ccc2nc(SCc3cccc([N+](=O)[O-])c3)nc(C)c2c1 | 0.472
COc1ccc(-c2noc(COc3ccc(Cl)c(C)c3)n2)cc1 | 5.91
CCCCCn1c(CN2CCN(Cc3ccccc3)CC2)nc2c1c(=O)n(C)c(=O)n2C | -57.9
Cl.OC1(c2ccc(F)cc2)CCN(Cc2ccccc2)C1 (stereo not shown) | 7.08
COc1ccc(S(=O)(=O)Nc2cc(S(=O)(=O)c3ccccc3)c(O)cc2C)cc1 | 9.14
CCOc1ccc(C(C(=O)NCC2CCCO2)N(Cc2cccc(OC)c2)C(=O)c2snc(C(N)=O)c2N)cc1 (stereo not shown) | -2.85
CCCCCCN1C2=NCCN2c2ccccc21.Cl | -82.3
Cc1ccsc1-c1nc(CSCC(=O)NCCN2CCCC2)c(C)o1 | -8.26
CS(=O)(=O)NCCOc1ccc(S(=O)(=O)NCCOc2ccccc2)cc1 | 4.8

SMILES | hERG current change (%, negative = inhibition) at 1uM [%]
O=C(CCc1ccccc1)N1CCN(Cc2ccc(F)cc2Cl)CC1 | 3.86
Cc1ccc(C2=NN3C(C(=O)c4ccccc4)Oc4ccccc4C3C2)cc1 (stereo not shown) | -0.34
COC(=O)C[C@H]1c2cc(C(F)(F)F)ccc2S(=O)(=O)N1Cc1ccccc1 | 2.87
Cc1ccc(-c2sc(C(=O)NN)c(C)c2C#N)cc1 | 10.5
O=C(Nc1ccc(N2CCOCC2)cc1N1CCOCC1)c1cccc([N+](=O)[O-])c1 | 7.77
COc1ccc(CCN2C(=O)CC(C(C)c3ccccc3)C2=O)cc1OC (stereo not shown) | -6.92
O=C(O)c1ccccc1-c1ccccc1C(=O)NCc1ccco1 | 13
O=C(N[C@@H](Cc1ccc(O)cc1)C(=O)O)c1ccncc1 | 16
Cc1ccc(N(CC(=O)Nc2ccc(Br)c(C)c2)S(=O)(=O)c2c(C)[nH]c(=O)[nH]c2=O)cc1 | 11.7
CC1(C)CC2CC(C)(CN2C(=O)COC(=O)c2ccc(Cl)c(N)c2)C1 (stereo not shown) | 4.41
CCOc1ccc(S(=O)(=O)N2CCCCC2)cc1NC(=O)C1=COCCO1 | 9.8
Cn1nc(N)c2c(-c3ccc(Cl)cc3)c(C#N)c(N)nc21 | 3.77
CC(C)(C)c1cc(C(=O)N/N=C/c2ccccc2O)n(-c2ccccc2)n1 | 11
CN(C)C(CNC(=O)CSc1nc2sc3c(c2c(=O)n1C)CCCC3)c1ccccc1 (stereo not shown) | 9.16
O=C(NCCc1csc(-c2cccnc2)n1)c1ccccc1 | 14.3
Cn1cnc(Sc2ncnc3nc[nH]c23)c1[N+](=O)[O-] | 15.4
COc1ccc(CC(=O)O/N=C(\N)Cc2cccc3ccccc23)cc1OC | 12.2
C/C=C\C=C/C(=O)Nc1cccc(C2=NOC3(C2)C[C@H](C(N)=O)N(C(=O)Cc2ccc([N+](=O)[O-])cc2)C3)c1 (stereo partly shown) | 10.4
CCCOC(=O)C[N+](C)(C)CCOC1CC2CCC1(C)C2(C)C.[Br-] (stereo not shown) | 11.2
Cc1cccc(CSCCNC(=O)CN2C(=O)c3ccccc3S2(=O)=O)c1 | 13.5
CCCc1nc2nc(C)c(NS(=O)(=O)c3ccc(CC(C)C)cc3)c(=O)n2[nH]1 | 9.49
Cc1csc(-c2cnn(-c3ccccc3)c2NC(=O)c2ccc(C(F)(F)F)cc2)n1 | 12.6

SMILES | hERG current change (%, negative = inhibition) at 1uM [%]
O=C(CSC1=NCCS1)N1CCCC1 | 19.5
O=C(c1ccco1)N1CCN(C(=O)c2nn3cccnc3c2Cl)CC1 | 18.4
O=C(Nc1nnc(SCc2c(Cl)cccc2Cl)s1)C1CC(=O)N(c2ccc3c(c2)OCCO3)C1 (stereo not shown) | 1.19
Cc1onc(-c2ccccc2Cl)c1C(=O)Nc1ccc(S(=O)(=O)NCC2CCCO2)cc1 (stereo not shown) | 5.88
Cc1cc(-c2ccccc2)n(-c2ccc(C(=O)N3CCN(c4ncccn4)CC3)cc2)n1 | -6.92
CCOC(=O)C1(Cc2cccc(F)c2)CCN(C(=O)c2ccoc2C)CC1 | 7.58
CCCN(C(=O)c1c(-c2ccccc2)noc1C)c1c(N)n(Cc2ccccc2)c(=O)[nH]c1=O | 4.65
CCOC(=O)C1CCN(C(=S)Nc2ccc(S(N)(=O)=O)cc2)CC1 | 6.52
COc1ccc(C2(O)CCN(Cc3nnnn3Cc3ccc(C)cc3)CC2)cc1 | 6.65
COc1ccc(CNC(=O)CN(C(=O)CCC(=O)Nc2ccccn2)c2cccc(C)c2)cc1 | 7.29
O=C(CNC(=O)[C@@H]1Cc2ccccc2CN1)NC1CCCC1 | 20.2
c1ccc(CN2CN=C(Nc3nc4ccccc4s3)NC2)cc1 | -13.4
COc1ccccc1N(CC(=O)NC1CCCC1)C(=O)C1(C)CC(=O)N=C2C=CC(C)=CN21 (stereo not shown) | 4.88
CCOC(=O)C1CCN(S(=O)(=O)c2cc(Br)cc3c2N(C(C)=O)C(C)C3)CC1 (stereo not shown) | 1.96
O=C(Nn1cnnc1)c1ccc(OC(F)(F)C(F)C(F)(F)F)cc1 (stereo not shown) | 9.24
CC(C)[C@@H]1NC(=O)c2cc([N+](=O)[O-])cc(I)c2OCC[C@@H](C(N)=O)NC(=O)[C@H](CCC(=O)O)NC1=O | 5.54
N#Cc1c(NCCCO)nc(-c2ccco2)c2c1CCCC2 | -0.659
COC(=O)c1ccc(CN2CCN(CCCc3ccccc3)C(CCO)C2)cc1 (stereo not shown) | -29.1
CC1CCN(S(=O)(=O)c2ccc(NC(=O)[C@@H]3CCCC[C@@H]3C(=O)O)cc2)CC1 | 4.24
CCOC(=O)c1sc(NC(=O)Nc2ccc(F)cc2)nc1C | 12.2
Cc1cc(C)cc(NC(=O)NCC(O)COc2ccc([N+](=O)[O-])cc2)c1 (stereo not shown) | 1.59
COc1ccc(C(=O)NNC(=O)Nc2ccc(C)cc2)cc1 | 4.94

SMILES | hERG current change (%, negative = inhibition) at 1uM [%]
CCCc1cc(=O)oc2cc(OCc3ccc(OC)cc3)c(Cl)cc12 | 12.3
Cc1nn(Cc2ccc(C(=O)Nc3nc4c(C)cccc4s3)o2)c(C)c1Br | 11.6
Nc1c(C(=O)NC2CCCC2)c2nc3ccccc3nc2n1CC1CCCO1 (stereo not shown) | 4.79
COc1ccc(NC(=O)c2cn(CCC#N)nc2-c2cc3ccccc3o2)cc1 | -0.96
C/C(=N\NC1=NCCN1)c1ccccc1 | 15.8
CC(C)(C)NC(=O)N1CCC(CO)(Cc2ccccc2Cl)CC1 | 7.38
O=C(CCCC(=O)Nc1ccccc1Br)N/N=C/c1c(F)cccc1Cl | 7.28
Cc1c(CNCc2cccs2)c(C(=O)O)c(C)n1Cc1ccccc1 | -3.44
CCN(CC)C(=O)c1sc2[nH]c(=S)n(-c3ccccc3)c(=O)c2c1C | 10.7
NC(=O)C1CCN(c2nc(-c3ccc4ccccc4c3)cs2)CC1 | 10.7
C=CCn1c(SCCOC)nc2c1c(=O)[nH]c(=O)n2C | 10.8
CC1CCCCC12NC(=O)N(CC(=O)N1CCN(C(=O)c3ccco3)CC1)C2=O (stereo not shown) | 1.82
CCC(C)[C@H](NC(=O)Nc1ccc(S(N)(=O)=O)cc1)C(=O)O (stereo partly shown) | 7.38
COc1cccc(NC(=O)CN(C)C(=O)c2c(C)nn(-c3ccccc3)c2Cl)c1 | 14.7
CCC(=O)N(C)CCc1cc2c(c(OC)c1/C=N/NC(=O)c1ccccc1O)OCO2 | 4.94
Cc1ccc(NC(=O)COC(=O)C(NS(=O)(=O)c2ccc(Cl)cc2)C(C)O)c(Br)c1 (stereo not shown) | 11.1
COc1ccccc1N1CCN(C2CC(=O)N(c3cccc(Br)c3)C2=O)CC1 (stereo not shown) | -17.9
O=C(CN1C(=O)C2C3C=CC(C3)C2C1=O)N1CC(=O)N(CCc2ccccc2)C(=O)C1 (stereo not shown) | 2.8
Cc1nn(-c2ccccc2)c(Cl)c1/C=C1\SC(=S)NC1=O | 22.4
